Assay results from PubChem BioAssay AID686979 (National Center for Advancing Translational Sciences (NCATS), 2013).
The campaign covered roughly 420,000 compounds. About 50,000 (12%) were called active. This list was built around the results that the source calls inconclusive (neither active nor inactive); the mix of calls is not that of the screen. Calls follow the shape of the dose curve; as a rule, active = well fitted inhibition curve with a large enough effect; inconclusive = small, poorly fitted or top-dose-only effect; inactive = flat fitted curve, though single readings scatter. No potency is given beside an inconclusive call; the fits are too rough.

Test: qHTS for Inhibitors of human tyrosyl-DNA phosphodiesterase 1 (TDP1): qHTS in cells in presence of CPT; also: nearly all actives have a fitted effect of over 55% in size
Details: chicken DT40 Tdp1-/-;hTDP1 cells + 20 nM CPT, ATP luminescence, 48 h; activity change, negative = growth inhibition: at 46.2 µM (top of the series)
Method in brief: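 Cell growth measured by CellTiter-Glo luminescence after a minimum 48 h, 37 C compound exposure with 20 nM CPT in Tdp1-knockout DT40 cells stably expressing hTDP1, seeded 400/well; qHTS titration format.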
% is scaled to controls: 0 for no effect and ±100 for the full control effect; potency is read from the fitted curve at half-maximal effect; tags tell the direction and shape of the fitted curve.

| SMILES | Potency | activity change, negative = growth inhibition |
| --- | --- | --- |
| COc1ccc(-n2nc([N+](=O)[O-])c(=NCCCN3CCCC3=O)n2O)cc1 | inconclusive [inhibitor, single point] | – |
| COc1ccc(C)cc1Nc1nc(C)nc2sc(C)cc12 | inconclusive [inhibitor, single point] | – |
| O=C(NCc1cccc(Br)c1)C1CC(c2ccccc2C(F)(F)F)=NO1 (stereo unspecified) | inconclusive [inhibitor, single point] | – |
| CC1(C)CC(=O)c2sc(NS(=O)(=O)c3cc(Cl)ccc3Cl)nc2C1 | – | inactive: 3.97% |
| COc1cccc(C(=O)Nc2ccc3nc(N4CCC(C)CC4)cc(C)c3c2)c1 | active: 11.6 µM | – |
| CC(C)(C)c1ccc(-c2cc(C(=O)NNC(=O)Nc3ccccc3)c3ccccc3n2)cc1 | inconclusive [inhibitor, single point] | – |
| Cc1[nH][nH]c(=O)c1C(c1c(C)[nH][nH]c1=O)c1cn(Cc2cccc3ccccc23)c2ccccc12 | active: 8.2 µM | – |
| CC1CCCN(S(=O)(=O)c2ccc(S(=O)(=O)N3CCCC3)cc2)C1 (stereo unspecified) | – | inactive: 16.4% |
| Cc1ccc2[nH]c(=O)c3cc(C(=O)N(C)Cc4ccco4)sc3c2c1 | inconclusive [inhibitor, single point] | – |
| CN(C(=O)c1cccc(NC(=O)Cc2ccc(NC(=O)C3CCCN(C(=O)C4CCCCC4)C3)cc2)c1)C1CCC1 (stereo unspecified) | inconclusive [inhibitor, partial curve] | – |
| CC(C)=CCC/C(C)=C/COc1ccc2ccc(=O)oc2c1 | inconclusive [inhibitor, single point] | – |
| Cc1ccc(/C=C/C(=O)Nc2sc3c(c2C#N)CCCC3)o1 | inconclusive [inhibitor, single point] | – |
| CN(C1=C(N2CCOCC2)C(=O)c2ccccc2C1=O)c1ccccc1 | active: 13 µM | – |
| COc1ccc(N=C2S/C(=C\c3ccco3)C(=O)N2CC(C)C)cc1 | – | inactive: -0.0844% |
| C=CC[N@@+]12CC[C@@]34c5ccccc5N5/C=C6/[C@H]7C[C@H]8[C@@]9(CC[N@@+]8(CC=C)C/C7=C/CO)c7ccccc7N(/C=C(/[C@@H](C[C@@H]31)/C(=C\CO)C2)[C@H]54)[C@@H]69 | – | inactive: 1.34% [at 21.1 µM] |
| COC(=O)c1c(NC(=O)c2ccc(C)c(S(=O)(=O)Nc3ccccc3C)c2)sc2c1CCCC2 | inconclusive [inhibitor, single point] | – |
| CCNc1ccccc1CP(=O)(c1ccccc1)c1ccccc1O (stereo unspecified) | inconclusive [inhibitor, single point] | – |
| O=C(CN1C(=O)c2ccccc2C1=O)N1CCN=C1c1ccccc1 | – | inactive: 13.3% |
| O=C(NCc1ccc2c(c1)OCO2)c1ccccc1Cl | – | inactive: -3.21% |
| CCOC(=O)c1[nH]c2c(c1Cc1ccccc1OC)C(=O)CC(c1ccc(OCC)cc1)C2 (stereo unspecified) | active: 8.2 µM | – |
| COc1ccc(CNS(=O)(=O)c2cc(-c3cc(C)no3)ccc2C)cc1OC | – | inactive: -26.5% |
| CN(C)c1cnn(-c2ccccc2)c(=O)c1Cl | – | inactive: -23.4% |
| CNS(=O)(=O)c1ccc2nc(NC(=O)/C=C/c3ccco3)sc2c1 | inconclusive [inhibitor, single point] | – |
| Cc1ccc(S(=O)(=O)c2nc(S(C)(=O)=O)sc2NCc2ccccc2)cc1 | inconclusive [inhibitor, single point] | – |

| SMILES | Potency | activity change, negative = growth inhibition |
| --- | --- | --- |
| O=C(OCc1nnc(-c2ccccc2)o1)c1ccc(S(=O)(=O)NCc2ccco2)cc1 | inconclusive [inhibitor, single point] | – |
| CCCc1nc2c(C)cc(Br)cn2c1Cc1cccc(F)c1 | inconclusive [inhibitor, single point] | – |
| COC(=O)c1cc(C)ccc1OCc1ccc([N+](=O)[O-])cc1 | – | inactive: 7% |
| O=c1[nH]c(CSc2nc3ccccc3o2)nc2c1cnn2-c1ccccc1 | inconclusive [inhibitor, single point] | – |
| COc1ccc(C2=CC(c3cccc(C)c3)n3nnnc3N2)cc1 (stereo unspecified) | inconclusive [inhibitor, single point] | – |
| COc1ccccc1CNC(=O)c1ccc(-c2nc(CS(=O)c3ccccc3)c(C)o2)cc1 (stereo unspecified) | inconclusive [inhibitor, single point] | – |
| CCCCn1cc(S(=O)(=O)c2ccc(F)cc2)c(=O)c2ccccc21 | inconclusive [inhibitor, single point] | – |
| COc1cccc(C(=O)NC(=S)N2CCN(c3ccc(C(F)(F)F)cc3[N+](=O)[O-])CC2)c1 | inconclusive [inhibitor, partial curve] | – |
| Cc1ccc(OCCCC(=O)N(C)CC(=O)Nc2c(C)cccc2C)cc1 | – | inactive: -9.36% |
| CCCCN(CCCC)CCNC(=O)c1cc(-c2cccnc2)nc2ccc(S(=O)(=O)N3CCC(C)CC3)cc12 | active: 3.66 µM | – |
| Cc1ccc2nc(C(F)OC(F)(F)F)[nH]c2c1 (stereo unspecified) | inconclusive [inhibitor, partial curve, poor fit] | – |
| Oc1ccc(/C=N/n2c(-c3ccccc3)n[nH]c2=S)cc1 | inconclusive [inhibitor, single point] | – |
| CCOc1ccc2nc(N3CCCC(C(=O)Nc4cccc(Cl)c4C)C3)sc2c1 (stereo unspecified) | inconclusive [inhibitor, single point] | – |
| Cc1ccc(SCc2nnc(NC(=O)c3ccccc3)s2)cc1 | – | inactive: -13.6% |
| COC(=O)[C@@]1(C)[C@H]2C(=O)N(C)C(=O)[C@H]2[C@H]2CN=C(SCc3ccc(Cl)cc3)N21 | – | inactive: -9.82% |
| Cc1ccc(C)c(S(=O)(=O)NC(C)C(=O)Nc2ccc(-c3nc4ccccc4s3)cc2)c1 (stereo unspecified) | – | inactive: -1.65% |
| COc1ccc(Cn2c(SCC(N)=O)nc3c(sc4ccccc43)c2=O)cc1 | inconclusive [inhibitor, single point] | – |
| C[C@H](NC(=O)c1ccccc1)C(=O)Nc1nc(-c2ccccn2)cs1 | active: 25.9 µM | – |
| COc1ccc(CCN=C(C)C2=C(O)C(c3ccccc3)OC2=O)cc1OC (stereo unspecified) | inconclusive [inhibitor, single point] | – |
| NCC1CCN(c2nc3ccccc3c3c2CCCC3)CC1 | active: 20.6 µM | – |
| Cc1ccc(C(=O)CSc2ccc(-c3cccnc3)nn2)cc1 | – | inactive: -26.6% |
| O=C(CCN=C1NS(=O)(=O)c2ccccc21)OCc1cccc(Cl)c1 | – | inactive: -9.66% |
| Cc1ccc(O)c(CNc2cccc3cccnc23)c1 | inconclusive [inhibitor, single point] | – |
| COCCn1c(SCc2cnc(-c3ccccc3)s2)nnc1-c1ccncc1 | active: 20.6 µM | – |

| SMILES | Potency | activity change, negative = growth inhibition |
| --- | --- | --- |
| COCCCNC(=O)Cc1c(C)c2c(cc(C)c3c(C)c(C)oc32)oc1=O | inconclusive [inhibitor, single point] | – |
| COc1ccccc1C(=O)NCc1ccccc1 | inconclusive [inhibitor, partial curve] | – |
| CN(C)c1ccc(CN(CC2CCCO2)C(=O)c2ccc(Br)cc2)cc1 (stereo unspecified) | inconclusive [inhibitor, single point] | – |
| CCn1c(O)c(/C=C2\C=Nc3ccccc32)sc1=Nc1ccc(C)cc1 | inconclusive [inhibitor, full curve] | – |
| CCOC(=O)C(=N/O)/C(C)=N/NC(=O)C(=O)Nc1ccc(Cl)cc1 | active: 4.11 µM | – |
| CN(c1ccc(C(=O)N2CCOCC2)cc1[N+](=O)[O-])C1CCCCC1 | inconclusive [inhibitor, single point] | – |
| Cc1oc(-c2ccccc2Cl)nc1CS(=O)CC(=O)NCCc1ccccc1 (stereo unspecified) | – | inactive: -22.4% |
| Clc1ccc2c(c1)CNc1c(ncnc1N1CCOCC1)O2 | inconclusive [inhibitor, partial curve] | – |
| Cc1ccc2[nH]c(CSc3nnc(COc4ccccc4C)n3C)cc(=O)c2c1 | active: 18.4 µM | – |
| Cc1ccc(-n2c(=O)c3ccc(C(=O)NCc4ccccc4Cl)cc3n(CC(=O)Nc3cccc(F)c3)c2=O)cc1 | inconclusive [inhibitor, single point] | – |
| Cc1cc(CNC(=O)Cn2nc(C)c([N+](=O)[O-])c2C)c2ccccc2n1 | inconclusive [inhibitor, single point] | – |
| Cc1ccc(C(=O)NNC(=O)OC(C)(C)C)c(Cl)c1 | – | inactive: 14.3% |
| Cc1cccc(NC(=O)c2ccc(N3CCCCC3)c([N+](=O)[O-])c2)n1 | inconclusive [inhibitor, single point] | – |
| COc1cccc(CNC(=O)CN2C(=O)CSc3c2c(C)nn3-c2ccccc2)c1 | – | inactive: -24.5% |
| Cc1ccc(CN(C)C(=O)c2cccc(S(=O)(=O)N3CCN(Cc4ccccc4)CC3)c2)o1 | inconclusive [inhibitor, single point] | – |
| Clc1ccc(C2Nc3ccccc3-n3cccc32)cc1 (stereo unspecified) | inconclusive [inhibitor, single point] | – |
| O=C(NNS(=O)(=O)c1ccc(F)cc1)c1ccc2c(c1)OCO2 | – | inactive: -1.53% |
| COc1cccc(-c2ccc(NC(=O)C3CCCN(Cc4nccn4C)C3)cc2)c1 (stereo unspecified) | inconclusive [inhibitor, single point] | – |
| COc1cccc(NC(=O)CSc2nnc(C3CCCCC3)n2N)c1 | – | inactive: -9.54% |
| COc1cc(NC(=O)COc2cc(C)cc3oc(=O)c(C)c(C)c23)cc(OC)c1OC | – | inactive: -6.89% |
| COc1ccc(C(=O)N2CCC(N3CCN(c4ccccc4)CC3)CC2)cc1 | inconclusive [inhibitor, single point] | – |
| Cc1cnc(-n2ncc(C(=O)NCCN3CCOCC3)c2C2CC2)nc1-c1cccs1 | – | inactive: 21.1% |
| CNc1cnn(-c2ccccc2)c(=O)c1Cl | inconclusive [inhibitor, single point] | – |
